Drawing on PMC10154249, “Unique progerin C-terminal peptide ameliorates Hutchinson–Gilford progeria syndrome phenotype by rescuing BUBR1” (Nature Aging, 2023), this text covers binding for nine substances.

Sequences of proteins named here, by UniProt entry; tags and fusion partners are left off. A change or cut given only in a name is not applied to a line headed by its entry. A line that says so, or that is headed by a name, gives the form on record, which may keep a tag or linker. Residues count along the entry.
UniProt P02545: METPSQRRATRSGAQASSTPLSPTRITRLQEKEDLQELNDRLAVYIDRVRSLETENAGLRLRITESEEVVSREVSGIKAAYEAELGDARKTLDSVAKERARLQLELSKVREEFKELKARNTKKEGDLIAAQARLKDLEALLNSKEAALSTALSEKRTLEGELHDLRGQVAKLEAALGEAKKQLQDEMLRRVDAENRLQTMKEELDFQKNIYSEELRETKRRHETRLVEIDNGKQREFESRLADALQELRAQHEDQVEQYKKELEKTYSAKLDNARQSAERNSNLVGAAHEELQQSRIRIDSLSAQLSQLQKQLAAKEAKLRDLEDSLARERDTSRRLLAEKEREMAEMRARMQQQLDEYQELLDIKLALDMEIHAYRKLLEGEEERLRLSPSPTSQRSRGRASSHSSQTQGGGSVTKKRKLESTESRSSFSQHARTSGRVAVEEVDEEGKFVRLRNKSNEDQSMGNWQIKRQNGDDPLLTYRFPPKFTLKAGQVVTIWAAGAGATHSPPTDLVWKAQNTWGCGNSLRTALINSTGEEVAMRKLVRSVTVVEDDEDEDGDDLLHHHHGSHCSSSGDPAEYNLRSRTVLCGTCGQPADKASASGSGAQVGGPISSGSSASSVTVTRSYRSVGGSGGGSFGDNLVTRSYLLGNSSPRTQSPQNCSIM
Flag-lamin A: residues 1-646 of P02545
GST-tagged progerin middle region (progerin-M; aa residues 301–564): residues 301-564 of P02545
GST-tagged lamin A C-terminal region (lamin A-C; aa residues 565–664): residues 565-664 of P02545
Flag-progerin (HEK-293T) (P02545, form named): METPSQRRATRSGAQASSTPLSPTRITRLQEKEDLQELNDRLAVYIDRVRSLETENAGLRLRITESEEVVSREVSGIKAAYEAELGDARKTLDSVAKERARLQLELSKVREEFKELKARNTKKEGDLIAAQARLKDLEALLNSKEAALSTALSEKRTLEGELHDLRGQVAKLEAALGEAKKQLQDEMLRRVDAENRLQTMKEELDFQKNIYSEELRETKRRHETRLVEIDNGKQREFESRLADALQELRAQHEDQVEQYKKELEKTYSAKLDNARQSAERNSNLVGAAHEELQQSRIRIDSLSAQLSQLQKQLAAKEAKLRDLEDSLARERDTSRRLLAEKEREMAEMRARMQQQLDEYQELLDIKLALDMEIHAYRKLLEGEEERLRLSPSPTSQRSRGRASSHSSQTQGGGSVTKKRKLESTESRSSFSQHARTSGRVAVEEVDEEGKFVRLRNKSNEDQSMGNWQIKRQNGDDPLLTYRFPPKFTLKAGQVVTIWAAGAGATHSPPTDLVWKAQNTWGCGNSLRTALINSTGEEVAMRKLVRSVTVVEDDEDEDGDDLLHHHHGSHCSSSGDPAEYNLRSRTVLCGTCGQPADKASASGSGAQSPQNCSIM
Flag-tagged progerin C-terminal region (progerin-C; aa residues 565–614) (P02545, form named): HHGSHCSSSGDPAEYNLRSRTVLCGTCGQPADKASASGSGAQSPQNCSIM
UniProt O60566: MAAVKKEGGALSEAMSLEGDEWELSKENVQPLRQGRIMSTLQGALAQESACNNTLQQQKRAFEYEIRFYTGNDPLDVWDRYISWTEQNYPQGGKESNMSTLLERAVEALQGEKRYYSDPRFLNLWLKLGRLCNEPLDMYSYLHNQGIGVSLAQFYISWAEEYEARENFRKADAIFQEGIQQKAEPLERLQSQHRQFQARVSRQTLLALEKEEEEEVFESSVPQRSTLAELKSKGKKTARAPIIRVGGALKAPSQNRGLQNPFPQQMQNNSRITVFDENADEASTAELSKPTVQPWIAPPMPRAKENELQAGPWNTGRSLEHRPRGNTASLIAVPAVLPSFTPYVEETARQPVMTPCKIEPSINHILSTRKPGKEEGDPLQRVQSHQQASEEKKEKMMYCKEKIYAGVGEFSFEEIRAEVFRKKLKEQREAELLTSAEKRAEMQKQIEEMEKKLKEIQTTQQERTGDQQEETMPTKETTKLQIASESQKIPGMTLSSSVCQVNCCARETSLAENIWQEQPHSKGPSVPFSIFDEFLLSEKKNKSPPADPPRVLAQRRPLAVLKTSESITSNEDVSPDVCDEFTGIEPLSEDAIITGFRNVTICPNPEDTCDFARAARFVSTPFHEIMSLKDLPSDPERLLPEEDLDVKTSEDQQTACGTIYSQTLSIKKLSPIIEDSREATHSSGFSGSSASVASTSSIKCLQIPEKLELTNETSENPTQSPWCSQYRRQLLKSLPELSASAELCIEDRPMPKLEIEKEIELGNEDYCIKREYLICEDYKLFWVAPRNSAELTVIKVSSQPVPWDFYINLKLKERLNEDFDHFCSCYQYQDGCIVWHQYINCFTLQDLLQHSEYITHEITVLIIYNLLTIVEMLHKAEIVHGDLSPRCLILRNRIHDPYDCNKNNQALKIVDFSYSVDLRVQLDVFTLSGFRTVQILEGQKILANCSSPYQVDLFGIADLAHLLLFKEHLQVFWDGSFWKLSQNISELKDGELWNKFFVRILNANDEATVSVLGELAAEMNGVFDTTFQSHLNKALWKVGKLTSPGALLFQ
UniProt O43684: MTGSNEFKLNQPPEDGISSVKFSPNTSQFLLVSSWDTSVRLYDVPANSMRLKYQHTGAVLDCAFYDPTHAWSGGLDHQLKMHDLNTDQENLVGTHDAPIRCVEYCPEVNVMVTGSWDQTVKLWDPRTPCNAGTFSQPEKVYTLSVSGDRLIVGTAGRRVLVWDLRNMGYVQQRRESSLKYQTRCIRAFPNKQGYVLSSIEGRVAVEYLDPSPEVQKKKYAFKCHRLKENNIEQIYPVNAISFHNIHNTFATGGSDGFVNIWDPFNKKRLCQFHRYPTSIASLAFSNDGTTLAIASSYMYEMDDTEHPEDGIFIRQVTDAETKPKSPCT
UniProt Q9Z1S0: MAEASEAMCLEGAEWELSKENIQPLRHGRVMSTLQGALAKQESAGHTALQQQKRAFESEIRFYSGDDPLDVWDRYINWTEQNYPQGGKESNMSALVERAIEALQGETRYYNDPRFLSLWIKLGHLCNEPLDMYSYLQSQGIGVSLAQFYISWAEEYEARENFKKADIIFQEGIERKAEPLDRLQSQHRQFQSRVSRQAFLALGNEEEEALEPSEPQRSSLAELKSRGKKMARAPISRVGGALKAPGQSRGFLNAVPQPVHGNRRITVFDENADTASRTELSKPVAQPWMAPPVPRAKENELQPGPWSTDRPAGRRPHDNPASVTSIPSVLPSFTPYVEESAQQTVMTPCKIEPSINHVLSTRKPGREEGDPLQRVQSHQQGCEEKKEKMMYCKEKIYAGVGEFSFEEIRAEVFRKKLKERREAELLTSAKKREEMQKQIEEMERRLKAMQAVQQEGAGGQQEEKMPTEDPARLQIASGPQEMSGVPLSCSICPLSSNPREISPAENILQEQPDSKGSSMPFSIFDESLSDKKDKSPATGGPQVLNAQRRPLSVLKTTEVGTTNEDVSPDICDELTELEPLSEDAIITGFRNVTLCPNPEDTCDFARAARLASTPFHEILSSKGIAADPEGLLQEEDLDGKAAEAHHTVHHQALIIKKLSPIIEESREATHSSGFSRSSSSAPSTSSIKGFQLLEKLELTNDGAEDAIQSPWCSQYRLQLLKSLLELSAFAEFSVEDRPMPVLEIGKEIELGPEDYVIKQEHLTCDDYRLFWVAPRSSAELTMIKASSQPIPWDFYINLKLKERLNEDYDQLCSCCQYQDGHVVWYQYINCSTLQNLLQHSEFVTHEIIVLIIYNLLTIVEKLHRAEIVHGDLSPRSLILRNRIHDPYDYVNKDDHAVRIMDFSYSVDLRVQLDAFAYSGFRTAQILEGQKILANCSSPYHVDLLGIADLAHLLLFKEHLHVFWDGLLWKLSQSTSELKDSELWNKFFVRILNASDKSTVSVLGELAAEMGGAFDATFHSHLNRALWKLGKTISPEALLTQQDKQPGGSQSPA
UniProt P26599: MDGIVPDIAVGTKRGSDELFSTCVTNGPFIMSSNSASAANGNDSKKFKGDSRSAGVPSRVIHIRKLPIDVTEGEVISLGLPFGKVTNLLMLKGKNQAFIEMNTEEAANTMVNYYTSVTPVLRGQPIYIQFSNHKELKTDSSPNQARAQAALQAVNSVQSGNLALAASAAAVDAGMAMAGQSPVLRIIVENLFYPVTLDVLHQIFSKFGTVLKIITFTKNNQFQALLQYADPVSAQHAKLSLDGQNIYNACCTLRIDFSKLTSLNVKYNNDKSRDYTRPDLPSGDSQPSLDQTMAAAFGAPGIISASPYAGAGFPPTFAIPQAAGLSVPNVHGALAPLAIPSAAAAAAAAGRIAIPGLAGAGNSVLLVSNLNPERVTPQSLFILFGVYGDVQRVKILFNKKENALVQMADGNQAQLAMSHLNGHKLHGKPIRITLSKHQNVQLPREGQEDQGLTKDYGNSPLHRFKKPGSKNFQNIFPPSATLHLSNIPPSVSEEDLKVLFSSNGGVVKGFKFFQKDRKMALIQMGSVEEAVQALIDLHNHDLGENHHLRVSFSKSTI

Test [1] addresses Flag-progerin (NIH-3T3) (human) (UniProt P02545). Description: co-IP; IMR90 cells or NIH-3T3 cells transfected with Flag-progerin; IP with the Flag antibody.
In test [2] the target is Flag-progerin (HEK-293T) (human) (UniProt P02545). The test is described as follows: co-IP; HEK-293T cells transfected or cotransfected with tagged constructs; CoIP buffer (25 mM Tris-HCl pH 7.5, 150 mM KCl, 5 mM EDTA, 0.5% NP-40); IP with anti-Flag, anti-HA or anti-GFP antibody, Protein A/G magnetic beads, 4 °C.
Test [3] concerns the target Flag-progerin (IMR90) (human) (UniProt P02545). Description: co-IP; IMR90 cells or NIH-3T3 cells transfected with Flag-progerin; IP with the Flag antibody.
Test [4] deals with HA-BUBR1 (human) (UniProt O60566). Description: co-IP; HEK-293T cells transfected or cotransfected with tagged constructs; CoIP buffer (25 mM Tris-HCl pH 7.5, 150 mM KCl, 5 mM EDTA, 0.5% NP-40); IP with anti-Flag, anti-HA or anti-GFP antibody, Protein A/G magnetic beads, 4 °C.
Test [5] shares this target. Description: co-IP; HEK-293T cells transfected with tagged constructs and treated with or without UPCP peptide (6, 12, 18 μM; 18 μM for 48 h in Extended Data Fig. 9; with nocodazole 200 ng/ml for BUB3 and CDC20).
For another test, the target named is mVenus-progerin (human) (UniProt P02545). Description: co-IP; H1299 cells transfected with mVenus or mVenus-progerin; IP with the anti-GFP antibody.
Test [6] concerns the target Flag-tagged progerin C-terminal region (progerin-C; aa residues 565–614) (human) (UniProt P02545). Description: co-IP; HEK-293T cells transfected or cotransfected with tagged constructs; CoIP buffer (25 mM Tris-HCl pH 7.5, 150 mM KCl, 5 mM EDTA, 0.5% NP-40); IP with anti-Flag, anti-HA or anti-GFP antibody, Protein A/G magnetic beads, 4 °C.
Test [7] has as its target Flag-tagged lamin A C-terminal region (lamin A-C; aa residues 565–664) (human) (UniProt P02545). Described as above.
Test [8] addresses Flag-tagged progerin middle region (progerin-M; aa residues 301–564) (human) (UniProt P02545). The description is as above.
Test [9] has as its target HA-progerin (human) (UniProt P02545). The test is described as follows: co-IP; HEK-293T cells cotransfected with truncated mutants of progerin-C and HA-progerin; progerin IP with the anti-HA antibody.
Test [10] has as its target BUB3 (endogenous, HEK-293T) (human (endogenous in HEK-293T)) (UniProt O43684). The test is described as follows: co-IP; HEK-293T cells transfected with tagged constructs and treated with or without UPCP peptide (6, 12, 18 μM; 18 μM for 48 h in Extended Data Fig. 9; with nocodazole 200 ng/ml for BUB3 and CDC20).
In another test the target is GST-lamin A (human) (UniProt P02545). Description: pull-down; GST-progerin, GST-lamin A or their GST-tagged truncated mutants incubated with HEK-293T cell lysate; BUBR1 detected by blot; only the target purified.
Another test deals with GST-progerin (human) (UniProt P02545). The description is as above.
Test [11] deals with GST-tagged progerin middle region (progerin-M; aa residues 301–564) (human) (UniProt P02545). Described as above.
The target in test [12] is GST-tagged progerin C-terminal region (progerin-C; aa residues 565–614) (human) (UniProt P02545). Described as above.
Test [13] has as its target GST-tagged lamin A C-terminal region (lamin A-C; aa residues 565–664) (human) (UniProt P02545). The test is described as above.
Test [14] concerns the target Flag-tagged progerin C-terminal region (progerin-C; aa residues 565–614) (human) (UniProt P02545). The test is described as follows: co-IP; HEK-293T cells cotransfected with increasing amounts of Flag-progerin-C (5, 10 and 15 μg) and HA-progerin; IP with anti-Flag or anti-HA antibody.
Test [15] deals with HA-progerin (human) (UniProt P02545). Described as above.
A further test addresses Flag-lamin A (human) (UniProt P02545). Description: co-IP; HEK-293T cells transfected or cotransfected with tagged constructs; CoIP buffer (25 mM Tris-HCl pH 7.5, 150 mM KCl, 5 mM EDTA, 0.5% NP-40); IP with anti-Flag, anti-HA or anti-GFP antibody, Protein A/G magnetic beads, 4 °C.

Results are given in words; binding and its absence hold for the method and conditions named. In cells and extracts the contact can be indirect. Some entries that bind do so weakly or less than the wild type.

Regarding “BubR1 (endogenous, NIH-3T3) (from UniProt Q9Z1S0 1-1052)”, in [1], the binding entry is “binds”.

Take “HA-BUBR1-N truncated mutant (aa residues 1–426) (from UniProt O60566 1-426) (domain or fragment)”: in test [2], the binding entry is listed as “binds”.

On to “BUBR1 (endogenous, IMR90) (from UniProt O60566 1-1050)”, for which the binding entry in test [3] is reported as “binds”.

Regarding “PTBP1 (endogenous, HEK-293T) (from UniProt P26599 1-557)”, the binding result in test [2] is reported as “binds”.

As to Flag-PTBP1 (from UniProt P26599 1-557), the binding entry with HA-BUBR1 (human) [4] and with HA-BUBR1 (human) [5] was “binds” each time.

Turning to “BUBR1 (endogenous, H1299) (from UniProt O60566 1-1050)”, the binding entry with mVenus-progerin (human) is “binds”.

Consider “BUBR1 (endogenous, HEK-293T) (from UniProt O60566 1-1050)”, for which the binding result in test [6] is recorded as “binds”; in test [7], “no binding”; in [8], “binds”; with HA-progerin (human) [9] it was “binds”; in [10], “binds”; with GST-lamin A (human), “binds”. Further, the binding result is listed as “binds” with GST-progerin (human); “binds” in test [11]; “binds” in test [12]; “no binding” in test [13]; “binds” in [14]; “binds” with HA-progerin (human) [15].

Turning to HA-BUBR1 (from UniProt O60566 1-1050), the binding entry (in test [2]; with Flag-lamin A (human)) was “binds” throughout.

GFP-BUBR1 (from UniProt O60566 1-1050): the binding entry in [2] is reported as “binds”.
